Assay results: the supplement of paper PMC11417369
± gives the standard deviation of the averaged measurements. The list shows a part of the results.

Each sequence was assayed on PfAP2-I AP2 domain 3 (GST-tagged) (assay: gcPBM binding intensity (ln(normalized median fluorescence intensity)); higher = stronger DNA binding).
How it was run: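 Alexa488 anti-GST antibody, scanned at 488 nm, detected GST-tagged P. falciparum DNA-binding domains that had been expressed in E. coli and incubated for 1 h on an Agilent 4 × 180k array. The array carried primer-extended double-stranded 36-bp intergenic genomic probes and negative controls. Binding intensity is the highest Masliner-normalised natural-log median intensity across replicate spots of either orientation of each probe.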

| Sequence | gcPBM binding intensity (ln) |
| --- | --- |
| AATAATTGTTAAAGCTGTACAATACTTATATAAGAA [XGTACX_site5729] | 7.91 ± 0.44 |
| AATGTTTATTAACATTGTACTTATAATATGTCACAA [XGTACX_site2974] | 7.81 ± 0.099 |
| AATAATAAAGATCAATGTACATAATAAAAAAAAAAA [XGTACX_site2692] | 8.03 ± 0.63 |
| TATCATGGGTGTATTTCACACACGGATAATCATTTA [CACACA_site8211] | 7.46 ± 0.61 |
| TAATAATTTATAATAGTGCATTTGATTTTAAAAATA | 9.81 ± 0.51 |
| TTTTTATGGTAAATAAAAATATCTCCCTCCTTAATT [CACACA_negctrl_site1352] | 7.42 ± 0.55 |
| TTAAAAAAATATAATACACACCAAAAATATGCACAT [CACACA_site5209] | 9.6 ± 0.43 |
| ATTTACATAAATTGCATATATCGATGTAAATAAATA [CACACA_negctrl_site1150] | 7.7 ± 0.57 |
| TCTTTTTAAACTAATAGTACATATATATTAATAAAT [XGTACX_site4217] | 7.93 ± 0.16 |
| CATTTATTTTTGTTCTGTACATAAAGATGAACAAAA [XGTACX_site6797] | 7.75 ± 0.26 |
| ATATATATATATATATGTACATATATTTATTTATTG [XGTACX_site6267] | 9.21 ± 0.89 |
| ATAAAATGATAAATTTGTACACAAAAAAAAAAAAAA [XGTACX_site964] | 8.04 ± 0.54 |
| AAAATAAAATATTTCTGTACTTATAACTATTCTATA [XGTACX_site8007] | 7.61 ± 0.52 |
| GGGTATACAAATAAACGTACAAACTCATAAAAAAAA [XGTACX_site3191] | 8.05 ± 0.29 |
| CATATATAACAATTCTCACACATAAAAAAAAAAAAT [CACACA_site4564] | 7.46 ± 0.49 |
| TTTTTGCCATATTACACACACACATGTAAACCCCCT [CACACA_site1647] | 9.225 ± 0.007 |
| GTGAAATATGCAAACACACACGAGAAAAATGTATAT [CACACA_site7488] | 8.19 ± 0.91 |
| CAAAACAAAACGTATGCACACAATTAATATATTAAA [CACACA_site3405] | 8.42 ± 0.47 |
| TAAATAAGCACATACACACATACATACATACATAAA [CACACA_site4017] | 8.32 ± 0.17 |
| AACCCCGTGGAAATATGTACATATAAATATATAAAT [XGTACX_site2094] | 8.35 ± 0.89 |
| TATTTTTTTCTTACATACTAATTTGGTACTCACATA [TGCATGCA_negctrl_site81] | 7.83 ± 0.67 |
| AAATAAATCTTATGCACACAAATAATTAATTAAACA [CACACA_site1693] | 9.38 ± 0.18 |

| Sequence | gcPBM binding intensity (ln) |
| --- | --- |
| AGAGTTCTCATATGCACACAAAAAACTTTCATTTAT [CACACA_site45] | 8.74 ± 0.33 |
| TTGATTACACTGAAGTGTACATATATATATATATAT [XGTACX_site3532] | 9.38 ± 0.21 |
| AATATCCACATTAGGAGTACACAGCTAACTGTTTGA [XGTACX_site3357] | 7.86 ± 0.57 |
| AAATAATAAAAAAAATGTACACGTAAATATTATATT [XGTACX_site8125] | 8.12 ± 0.83 |
| TTTTATATAAAATCGTGTACATACCATTTCCTATTA [XGTACX_site5159] | 9.02 ± 1 |
| AAAAAAAAAAGAAACACACACATTTGTATATAATAT [CACACA_site2078] | 7.54 ± 0.6 |
| CATATAAAAATGTGCACACACACACCCATATATATT [CACACA_site1526] | 9.42 ± 0.45 |
| AAAATTAATAAATAAACACACATATATATATATATA [CACACA_site2598] | 9.37 ± 0.34 |
| TAAAAAATAAATATATGTACATATTTATTTTTTTTT [XGTACX_site850] | 7.47 ± 0.17 |
| ATATTTTTTTTTTCGTGTACGCATAAATATATCTAA [XGTACX_site3360] | 8.27 ± 0.42 |
| ATTGAATTCCAACTGGTGCACCAGTAAGATTGAAAA [GTGCAC_site9895] | 10.6 ± 0.3 |
| TAGATAAACAAGAAATGTACAAACGTAAATATGTTC [XGTACX_site2373] | 7.59 ± 0.73 |
| ATATATTATTTCTAGTGTACATACCCATATATAATA [XGTACX_site8902] | 8.54 ± 0.4 |
| ATAAATAAGATATATACACACATATCTATACATATT [CACACA_site6369] | 7.66 ± 0.63 |
| ATTTAAGAAAAAAGTTGTACTTATTTATTTTTATTT [XGTACX_site5561] | 7.68 ± 0.3 |
| GGCTAAAAGGGGCACACACACAAAAAAAAAAAAAAA [CACACA_site3288] | 8.69 ± 0.12 |
| AATCCACTTTTTTATGTTATACAATATAAATTAAAT [XGTACX_negctrl_site446] | 7.71 ± 0.59 |
| AGTGGAATGTATGATTTTCATTCCTTAAAATTTTAA [GTGCAC_negctrl_site521] | 7.34 ± 0.71 |
| TATTGATTTATAAACACACACTCGAAGATGTTTAAC [CACACA_site4760] | 7.58 ± 0.59 |
| AATACTAAAAAGTGTACACATACATAAAAAATTGCA [CACACA_site5620] | 8.29 ± 0.29 |
| AAGAAAAAAGTTATTAGTACACATTATAATAAAAAG [XGTACX_site3527] | 7.97 ± 0.54 |
| CATTATGTTGTAAATACACACATACATATACATACA [CACACA_site8143] | 7.78 ± 0.56 |

| Sequence | gcPBM binding intensity (ln) |
| --- | --- |
| TATATATATGTAAATCGTACAAATTATATATATCAT [XGTACX_site2821] | 7.8 ± 0.49 |
| TATATCTCATAGTATACACACACACCCACCCACATA [CACACA_site8513] | 8.62 ± 0.74 |
| TAATTTTCTTTTTATCGTTTTTTTTTTTTTTTTTTT [XGTACX_negctrl_site432] | 8.96 ± 0.52 |
| ATAAATATGTAAAAAACATGCAAAAAATTAAAGACA [TGCATGCA_site912] | 8.14 ± 0.65 |
| GTTATTAAACAGAAAAGTACATATGTATATTAAAAT [XGTACX_site3724] | 7.95 ± 0.64 |
| TTATTAAATAAAATCATGCACACAATATATATTTTA [CACACA_site2496] | 8.28 ± 0.37 |
| TTATTACATAACAATATACACACTATTGATTAAAGA [CACACA_site2933] | 7.6 ± 0.52 |
| TAAAAAAAAAGAAGCTGTACTAAAAAATTTATATTA [XGTACX_site7408] | 7.55 ± 0.49 |
| GGAAACAAAAAATATATACACACTAAACATAAAAAA [CACACA_site20] | 7.66 ± 0.65 |
| TCATAGTAGAAACACACACACACACCCATATATATA [CACACA_site1737] | 8.46 ± 0.7 |
| AACGCACATATATTTATGTATATATATATATATATA [GTGCAC_negctrl_site478] | 9.21 ± 0.33 |
| GGGTTTTTTATTAATACATGCATGGAAACGCACTAT [TGCATGCA_site1000] | 10.2 ± 0.19 |
| AAATTCATAAAAATATTTTATAATTATATATAGAAT [TGCATGCA_negctrl_site343] | 7.51 ± 0.53 |
| ATATATATATAATTTGTACACACAAATATGCATATA [CACACA_site9136] | 9.18 ± 0.24 |
| AAGAAAAACAATGAGATAAAGAAGAGAAAATATGTC [TGCATGCA_negctrl_site415] | 8.13 ± 0.71 |
| TTTTCAAAAATATATACACACATGCATATTACGGTG [CACACA_site775] | 8.1 ± 0.75 |
| TACATGATAAGATGTAGTACATAAAAGAATAAATTA [XGTACX_site787] | 7.89 ± 0.34 |
| TATTCAATACTTAATGCACACAATAAAAAAAATATG [CACACA_site2467] | 10.9 ± 0.71 |
| ACGATAACATTTTTACGTACATATATTTTCACGGAG [XGTACX_site8764] | 7.99 ± 0.44 |
| ATATTGACAGGAAAAATTTTCTTTGAATCTTTAAAA [CACACA_negctrl_site1191] | 7.49 ± 0.57 |
| AAATGAAAAATAAGGAAAAAAAAAAAAAAAAAAAAA [CACACA_negctrl_site1715] | 8.12 ± 0.71 |
| TAAAATATTTCAAAGGTGCAATGATAATTTAAGACG [GTGCAC_site9609] | 10.6 ± 0.54 |

| Sequence | gcPBM binding intensity (ln) |
| --- | --- |
| TATGTTATATTGGACACACACAATAAACATTATGTA [CACACA_site1657] | 7.7 ± 0.32 |
| ATATATATATATAAGCGTACGCGTAGTTAAATTAAT [XGTACX_site7693] | 9.04 ± 0.37 |
| ACAAAAAAAATAAGCACACATATATATATATATATA [CACACA_site816] | 9.38 ± 0.36 |
| TTTTGTCGGAAATCGGATAAGAAGAAAAAAAATAAT [GTGCAC_negctrl_site594] | 8.02 ± 0.53 |
| TTCACTCCATATTATACACACACACTAATGAAAAAA [CACACA_site8991] | 8.21 ± 0.25 |
| AAAAAAAAAAAAAGTACACACATACATATAAATATA [CACACA_site8533] | 8.205 ± 0.049 |
| AAAAAAAAAAAATACGTGCACTATGATATATTATAT | 11.4 ± 0.36 |
| ATAATATTTATAAATTGTACTAATGTTCAATAATTA [XGTACX_site7284] | 7.51 ± 0.3 |
| AAATTTTATAAAGGAACACACATTTTTTTTTTTTCT [CACACA_site2368] | 7.48 ± 0.52 |
| GAAATAATTTTTATTTGTACACACATACATATATAT [XGTACX_site1862] | 8.07 ± 0.42 |
| TTATTCATTTCGAAAAGTACAAATTCTGTTTATTAT [XGTACX_site6892] | 7.68 ± 0.49 |
| CCACTAATTATGTGCACACAAATTAAAGGTCTACAA [CACACA_site4259] | 10.8 ± 0.23 |
| AAAAAAAAAAAACATACACACATACATACAGATATA [CACACA_site4681] | 7.58 ± 0.54 |
| TTCTATTTTATATGTGCACACATATACACCCACAAA [CACACA_site1130] | 10.3 ± 0.11 |
| TTCTTTTTGAAACACACACACACAAGAAAATATATA [CACACA_site3110] | 8.1 ± 0.37 |
| TTTCACTACACAAATACACACAAAAATATATGTGCA [CACACA_site2632] | 7.91 ± 0.54 |
| AAATTTTTTGTTCAATGTACTTTTTTATTATATTTT [XGTACX_site5298] | 7.64 ± 0.73 |
| TCTACTATTATATATTGTACAAATGATACTTATATT [XGTACX_site1819] | 7.81 ± 0.35 |
| ATTTTTTAAATTTAAACACACATTTTGTATATGTTT [CACACA_site1654] | 7.88 ± 0.55 |
| GATATATAATATAATACACACATTTTATGAATGTAA [CACACA_site24] | 7.66 ± 0.32 |
| AATATATTATATATATGTACATAATGTGTAATACCT [XGTACX_site2845] | 8.06 ± 0.38 |
| TTAAAATTTTTCAAAAGTACATAAATAATATATATT [XGTACX_site4694] | 7.68 ± 0.49 |
